Reference: the antibiotic and cytotoxicity screens of Wong et al. (2023)
Some of the results follow.

Tests used:
HSkMC = human skeletal muscle cells; assay: cytotoxicity call (relative viability < 0.9); conditions: 10 µM
HepG2 = assay: cytotoxicity call (relative viability < 0.9); conditions: 10 µM
S. aureus RN4220 = assay: growth inhibition call (relative growth <= 0.2); conditions: 50 µM

| Structure (SMILES) | cytotoxicity call (HSkMC) | cytotoxicity call (HepG2) | growth inhibition call (S. aureus RN4220) |
| --- | --- | --- | --- |
| C[C@H](CO)N1C[C@H](C)[C@@H](CN(C)S(=O)(=O)c2ccc(F)cc2)Oc2ccc(NC(=O)CCN3CCOCC3)cc2C1=O | inactive | inactive | inactive |
| COc1ccc(NC(=O)Nc2ccc3c(c2)C(=O)N([C@@H](C)CO)C[C@H](C)[C@H](CN(C)Cc2ccc(Cl)c(Cl)c2)O3)cc1 | active | active | inactive |
| O=C(O)c1cn(C2CC2)c2cc(N3CCNCC3)c(F)cc2c1=O | inactive | inactive | inactive |
| O=C(NCc1ccccc1)[C@@H]1c2ccccc2C(=O)N(Cc2ccccc2C(F)(F)F)[C@H]1c1ccc(CO)cc1 | inactive | inactive | inactive |
| COc1ccccc1C#Cc1ccc2c(c1)O[C@@H](CN(C)Cc1cccnc1)[C@@H](C)CN([C@H](C)CO)S2(=O)=O | inactive | inactive | inactive |
| C[C@@H]1CCCCO[C@H](CN(C)C(=O)Nc2ccc(C(F)(F)F)cc2)[C@H](C)CN([C@@H](C)CO)C(=O)c2cc(NC(=O)Nc3cccc4ccccc34)ccc2O1 | inactive | inactive | inactive |
| C[C@H](CO)N1C[C@H](C)[C@@H](CN(C)C(=O)C2CCCCC2)Oc2cc(C#CC3CC3)ccc2S1(=O)=O | inactive | inactive | inactive |
| C[C@H](CO)N1C[C@H](C)[C@H](CN(C)Cc2ccccc2)OCCCC[C@H](C)Oc2ccc(NS(=O)(=O)c3ccc(F)cc3)cc2C1=O | inactive | inactive | inactive |
| COc1cc(C(=O)N2CCC(N3CCN(C)CC3)CC2)ccc1Nc1ncc2c(n1)N(C)c1ccccc1C(=O)N2C | inactive | active | inactive |
| C[C@H](CO)N1C[C@H](C)[C@@H](CN(C)C(=O)Nc2ccccc2)Oc2c(NS(C)(=O)=O)cccc2C1=O | inactive | inactive | inactive |
| CN1C(=O)c2cc(NC(=O)c3cnccn3)ccc2OC[C@@H]2O[C@@H](CC(=O)NCC3CCCCC3)CC[C@H]21 | inactive | inactive | inactive |
| Cc1noc(C)c1NC(=O)Nc1cccc2c1O[C@@H](CN(C)Cc1ccc(Oc3ccccc3)cc1)[C@@H](C)CN([C@H](C)CO)C2=O | inactive | inactive | inactive |
| CC(C)NC(=O)Nc1ccc2c(c1)C(=O)N([C@H](C)CO)C[C@@H](C)[C@@H](CN(C)Cc1ccc3c(c1)OCO3)O2 | inactive | inactive | inactive |
| Cc1ccc(-c2cnc3c(c2)C(=O)N([C@H](C)CO)C[C@@H](C)[C@H](CN(C)C(=O)Cc2cccnc2)O3)cc1 | inactive | inactive | inactive |
| C[C@@H]1CN([C@@H](C)CO)C(=O)c2cc(NC(=O)c3ccccc3)ccc2O[C@@H](C)CCCCO[C@H]1CN(C)C(=O)NC1CCCCC1 | inactive | inactive | inactive |
| C[C@@H]1CN([C@@H](C)CO)C(=O)CCCn2cc(nn2)CO[C@H]1CN(C)S(=O)(=O)c1ccc2ccccc2c1 | inactive | inactive | inactive |
| Cc1ccc(S(=O)(=O)N(C)C[C@@H]2Oc3c(NS(=O)(=O)c4cn(C)cn4)cccc3C(=O)N([C@@H](C)CO)C[C@@H]2C)cc1 | inactive | inactive | inactive |
| CC(C)NC(=O)N(C)C[C@@H]1Oc2ccc(NC(=O)Nc3ccc4c(c3)OCO4)cc2C(=O)N([C@@H](C)CO)C[C@@H]1C | inactive | active | inactive |
| C[C@@H]1CN([C@H](C)CO)C(=O)CCCn2nncc2CO[C@H]1CN(C)S(=O)(=O)c1ccc(Oc2ccccc2)nc1 | inactive | inactive | inactive |
| CC(=O)n1cc([C@H]2C=C(C(=O)N3CCCCCCC3)O[C@@H](OCc3ccc(CO)cc3)C2)c2ccccc21 | inactive | inactive | inactive |
| COc1ccc(C#Cc2cnc3c(c2)C(=O)N([C@H](C)CO)C[C@@H](C)[C@H](CN(C)C(=O)CC2CC2)O3)cc1 | inactive | inactive | inactive |
| C=CCOC(=O)[C@H]1[C@@H]2C(=O)O[C@@H](c3ccccc3)[C@@H](c3ccccc3)N2[C@@H](c2ccc(OCCOC(=O)[C@H]3C[C@H]4C(=O)N[C@@H](CCCCNC(C)=O)C(=O)N4[C@H]3c3ccc(O)cc3)cc2)[C@]12C(=O)Nc1ccccc12 | inactive | inactive | inactive |
| CCCC[C@@H](CC)COc1ccc(-c2nc(-c3ccc(OC)cc3)nc(-c3ccc(OC[C@@H](CC)CCCC)cc3O)n2)c(O)c1 | inactive | inactive | inactive |
| C[C@@H]1CN([C@@H](C)CO)C(=O)c2cc(NC(=O)Cn3cnnn3)ccc2O[C@@H]1CN(C)S(=O)(=O)c1cccs1 | inactive | inactive | inactive |
